# Test results from patent US9012397B2 (priority 2011, dated 2015).
# Like-named read-outs stand apart in the source and are kept apart here.
# Legend:
# Type in all cases: in vivo, human
# [1] = system: cuts in the skin; conditions: 4 subjects; 50 μg/gr cream
# Procedure: (§1) The method of the invention has been carried out with respect to a number of skin disorders. The patients were treated with one of two peptides, each at a concentration of 50 μg/gr cream (unless otherwise indicated):
# The cream was manufactured by Amiga LTD, Israel, and contains the following components: […]
# [2] = system: lesions in the oral cavity
# Procedure: as §1
# (§2) The cream was manufactured by Amiga LTD, Israel, and contains the following components:
# 1. A person had several lesions in the middle of the oral cheek cavity (5 lesions of about 3-4 mm each).
# 3. […] After several weeks the treatment was renewed using toothpaste as a vehicle for the peptides.
# 5. […] The wound closed completely after 2 days. E. Rashes
# [3] = system: Fire Ant (Solenopsis spp.) stings; conditions: person four, sole of foot; 50 μg/gr cream several times per day
# Procedure: as §1, §2
# 6. person four stepped on a Fire Ant (Solenopsis spp.) nest in Utah, USA, and received stings on the sole of their foot. They felt an extremely strong pain sensation.
# [4] = person, lesions generally require 7-10 days to heal, 1000 μg/gr cream
substance,measurement,setting,value
pGLU-ASN-TRP-LYS-C8 [ZEP3],clinical outcome,[1],effective in closing the wounds without inflammation
same,clinical outcome,"[2]; person, 5 lesions of about 3-4 mm in oral cheek cavity, 50 μg/gr cream",almost immediate relief from itching and swelling
same,clinical outcome,[2]; [4],almost immediate relief from itching and pain of the wound
same,time until wound closed completely,[2]; [4],2 days
pGLU-ASN-TRP-THR [ZEP4],clinical outcome,"[2]; cancer patient, chemotherapy lesions in oral cavity and on lips, 500 μg/gr cream, discontinued due to bad taste",almost immediate relief in the mouth
same,clinical outcome,"[2]; person, lesion on right side of oral cavity, 50 μg/gr cream",almost immediate relief from itching and swelling
same,clinical outcome,[2]; [4],almost immediate relief from itching and pain of the wound
same,time until wound closed completely,[2]; [4],2 days
same,clinical outcome,"[2]; person, 500 μg/gr cream",almost immediate relief and the lesion disappeared
same,clinical outcome,[3],a reduction in the pain sensation
same,time to relief,[3],2 to 3 min
